# In all, about 2,900 compounds were measured (“NF-kB SEAP reporter activity, fold change vs agonist alone”: median about 0.99, highest 2% from about 2.6 on). Some of the results follow.
# Experiments:
# RAW-Dual [1] = assay: NF-kB SEAP reporter activity, fold change vs agonist alone; higher = enhanced NF-kB activity
# Outline: (§1)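 Cytotoxic wells were those whose IncuCyte confluency was below 70% of agonist controls in both mask sets. The cells were RAW-Dual macrophages at 50,000 cells/well in DMEM on 384-well plates, dosed with 50 nL of library stock by pin tool, stimulated with a PRR agonist 1 h later, and kept at 37 °C, 5% CO2 for 20 hours. IRF and NF-κB reporter activity, as fold change over agonist-alone wells, came from supernatant read by QuantiLuc luminescence and QuantiBlue absorbance, respectively.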
# RAW-Dual [2] = assay: NF-kB SEAP reporter activity, fold change vs agonist alone; cytotoxicity flag (confluency mask): not cytotoxic; higher = enhanced NF-kB activity
# Outline: as §1
# RAW-Dual [3] = assay: NF-kB SEAP reporter activity, fold change vs agonist alone; cytotoxicity flag (confluency mask): cytotoxic (confluency <70% of control); higher = enhanced NF-kB activity
# Outline: as §1
# [4] = library stock concentration (final ~1000-fold dilution): 10 mM, cytotoxicity flag (confluency mask): not cytotoxic, agonist: Imiquimod (TLR7) […]
# [5] = library stock concentration (final ~1000-fold dilution): 10 mM, cytotoxicity flag (confluency mask): not cytotoxic, agonist: MPLA (TLR4) […]
# [6] = agonist: ODN 1826 (TLR9) 0.5 ug/mL
# [7] = agonist: Pam2CSK4 (TLR2/6) 0.1 ug/mL
# [8] = agonist: Pam3CSK4 (TLR2/1) 0.1 ug/mL
# [9] = library stock concentration (final ~1000-fold dilution): 10 mM, cytotoxicity flag (confluency mask): cytotoxic (confluency <70% of control), agonist: Imiquimod (TLR7) […]
# [10] = library stock concentration (final ~1000-fold dilution): 10 mM, cytotoxicity flag (confluency mask): cytotoxic (confluency <70% of control), agonist: MPLA (TLR4) […]
compound,measurement,setting,value
CCOC(=O)COc1ccc(/C=C2\SC(=S)NC2=O)cc1OC,NF-kB SEAP reporter activity,RAW-Dual [1]; [4],0.985
same,NF-kB SEAP reporter activity,RAW-Dual [1]; [5],1.1
CC(CCc1ccccc1)NCC(O)c1ccc(O)c(C(N)=O)c1.Cl (centres undefined) (library stock concentration (final ~1000-fold dilution): 10 mM),NF-kB SEAP reporter activity,RAW-Dual [2]; agonist: LPS (TLR4) 0.1 ug/mL,1.49
same,NF-kB SEAP reporter activity,RAW-Dual [2]; [6],1.21
same,NF-kB SEAP reporter activity,RAW-Dual [2]; [7],1.37
same,NF-kB SEAP reporter activity,RAW-Dual [2]; [8],1.2
CC(CCc1ccccc1)NCC(O)c1ccc(O)c(C(N)=O)c1.Cl (centres undefined),NF-kB SEAP reporter activity,RAW-Dual [1]; [4],1.65
same,NF-kB SEAP reporter activity,RAW-Dual [1]; [5],1.21
CCCCc1nc2cc(/C=C/C(=O)NO)ccc2n1CCN(CC)CC (library stock concentration (final ~1000-fold dilution): 10 mM),NF-kB SEAP reporter activity,RAW-Dual [3]; agonist: LPS (TLR4) 0.1 ug/mL,4.93
same,NF-kB SEAP reporter activity,RAW-Dual [3]; [6],1.54
same,NF-kB SEAP reporter activity,RAW-Dual [3]; [7],0.93
same,NF-kB SEAP reporter activity,RAW-Dual [3]; [8],1.99
CCCCc1nc2cc(/C=C/C(=O)NO)ccc2n1CCN(CC)CC,NF-kB SEAP reporter activity,RAW-Dual [1]; [9],2.43
same,NF-kB SEAP reporter activity,RAW-Dual [1]; [10],2.67
Nc1ccc(/C=C/C(=O)NCc2cc3cc(-c4ccc(C(=O)N5CCC(F)(F)CC5)cc4)cc(-c4ccc(F)cc4)c3o2)cn1 (library stock concentration (final ~1000-fold dilution): 10 mM),NF-kB SEAP reporter activity,RAW-Dual [2]; agonist: LPS (TLR4) 0.1 ug/mL,0.54
same,NF-kB SEAP reporter activity,RAW-Dual [2]; [6],0.91
same,NF-kB SEAP reporter activity,RAW-Dual [2]; [7],0.361
same,NF-kB SEAP reporter activity,RAW-Dual [2]; [8],0.425
Nc1ccc(/C=C/C(=O)NCc2cc3cc(-c4ccc(C(=O)N5CCC(F)(F)CC5)cc4)cc(-c4ccc(F)cc4)c3o2)cn1,NF-kB SEAP reporter activity,RAW-Dual [1]; [4],0.939
same,NF-kB SEAP reporter activity,RAW-Dual [1]; [5],0.83
NC(=O)c1nc(F)cnc1O,NF-kB SEAP reporter activity,RAW-Dual [1]; [4],0.942
same,NF-kB SEAP reporter activity,RAW-Dual [1]; [5],1.01
NC(=O)c1nc(F)cnc1O (library stock concentration (final ~1000-fold dilution): 10 mM),NF-kB SEAP reporter activity,RAW-Dual [2]; agonist: LPS (TLR4) 0.1 ug/mL,1.03
same,NF-kB SEAP reporter activity,RAW-Dual [2]; [6],0.981
same,NF-kB SEAP reporter activity,RAW-Dual [2]; [7],0.983
same,NF-kB SEAP reporter activity,RAW-Dual [2]; [8],0.977
O=C(NO)c1cccc(C(=O)NCCc2ccccc2)c1,NF-kB SEAP reporter activity,RAW-Dual [1]; [4],1.05
same,NF-kB SEAP reporter activity,RAW-Dual [1]; [5],1.05
O=C(NO)c1cccc(C(=O)NCCc2ccccc2)c1 (library stock concentration (final ~1000-fold dilution): 10 mM),NF-kB SEAP reporter activity,RAW-Dual [2]; agonist: LPS (TLR4) 0.1 ug/mL,0.989
same,NF-kB SEAP reporter activity,RAW-Dual [2]; [6],1.12
same,NF-kB SEAP reporter activity,RAW-Dual [2]; [7],0.864
same,NF-kB SEAP reporter activity,RAW-Dual [2]; [8],0.709
CC(=O)Nc1nc2c(Oc3cc(-c4ccc(C(F)(F)F)cc4)ncn3)cccc2s1,NF-kB SEAP reporter activity,RAW-Dual [1]; [4],0.846
same,NF-kB SEAP reporter activity,RAW-Dual [1]; [5],1.03
CC(=O)Nc1nc2c(Oc3cc(-c4ccc(C(F)(F)F)cc4)ncn3)cccc2s1 (library stock concentration (final ~1000-fold dilution): 10 mM),NF-kB SEAP reporter activity,RAW-Dual [2]; agonist: LPS (TLR4) 0.1 ug/mL,0.799
same,NF-kB SEAP reporter activity,RAW-Dual [2]; [6],0.891
same,NF-kB SEAP reporter activity,RAW-Dual [2]; [7],0.972
same,NF-kB SEAP reporter activity,RAW-Dual [2]; [8],0.971
CC(C)n1nc(-c2ccc3oc(N)nc3c2)c2c(N)ncnc21,NF-kB SEAP reporter activity,RAW-Dual [1]; [4],1.76
same,NF-kB SEAP reporter activity,RAW-Dual [1]; [5],2.1
CC(C)n1nc(-c2ccc3oc(N)nc3c2)c2c(N)ncnc21 (library stock concentration (final ~1000-fold dilution): 10 mM),NF-kB SEAP reporter activity,RAW-Dual [2]; agonist: LPS (TLR4) 0.1 ug/mL,2.03
same,NF-kB SEAP reporter activity,RAW-Dual [2]; [6],1.69
same,NF-kB SEAP reporter activity,RAW-Dual [2]; [7],0.647
same,NF-kB SEAP reporter activity,RAW-Dual [2]; [8],0.973
Nc1nc(NC2CC2)cc(-c2cccc(Cl)c2Cl)n1 (library stock concentration (final ~1000-fold dilution): 10 mM),NF-kB SEAP reporter activity,RAW-Dual [2]; agonist: LPS (TLR4) 0.1 ug/mL,1.07
same,NF-kB SEAP reporter activity,RAW-Dual [2]; [6],0.971
same,NF-kB SEAP reporter activity,RAW-Dual [2]; [7],1.08
same,NF-kB SEAP reporter activity,RAW-Dual [2]; [8],0.753
Nc1nc(NC2CC2)cc(-c2cccc(Cl)c2Cl)n1,NF-kB SEAP reporter activity,RAW-Dual [1]; [4],1.1
same,NF-kB SEAP reporter activity,RAW-Dual [1]; [5],1.09
CC(C)=CC[C@@H](O)C1=CC(=O)c2c(O)ccc(O)c2C1=O (library stock concentration (final ~1000-fold dilution): 10 mM),NF-kB SEAP reporter activity,RAW-Dual [3]; agonist: LPS (TLR4) 0.1 ug/mL,0.371
same,NF-kB SEAP reporter activity,RAW-Dual [3]; [6],0.246
same,NF-kB SEAP reporter activity,RAW-Dual [3]; [7],0.115
same,NF-kB SEAP reporter activity,RAW-Dual [3]; [8],0.251
CC(C)=CC[C@@H](O)C1=CC(=O)c2c(O)ccc(O)c2C1=O,NF-kB SEAP reporter activity,RAW-Dual [1]; [9],0.149
same,NF-kB SEAP reporter activity,RAW-Dual [1]; [10],0.273
CNCc1cc(-c2ccccc2F)n(S(=O)(=O)c2cccnc2)c1.O=C(O)/C=C/C(=O)O,NF-kB SEAP reporter activity,RAW-Dual [1]; [4],0.604
same,NF-kB SEAP reporter activity,RAW-Dual [1]; [5],1.02
CNCc1cc(-c2ccccc2F)n(S(=O)(=O)c2cccnc2)c1.O=C(O)/C=C/C(=O)O (library stock concentration (final ~1000-fold dilution): 10 mM),NF-kB SEAP reporter activity,RAW-Dual [2]; agonist: LPS (TLR4) 0.1 ug/mL,1
same,NF-kB SEAP reporter activity,RAW-Dual [2]; [6],0.458
same,NF-kB SEAP reporter activity,RAW-Dual [2]; [7],0.812
same,NF-kB SEAP reporter activity,RAW-Dual [2]; [8],0.591
O=C(Nc1nc2cccc(-c3ccc(CN4CCS(=O)(=O)CC4)cc3)n2n1)C1CC1 (library stock concentration (final ~1000-fold dilution): 10 mM),NF-kB SEAP reporter activity,RAW-Dual [2]; agonist: LPS (TLR4) 0.1 ug/mL,0.515
same,NF-kB SEAP reporter activity,RAW-Dual [2]; [6],1.2
same,NF-kB SEAP reporter activity,RAW-Dual [2]; [7],0.994
same,NF-kB SEAP reporter activity,RAW-Dual [2]; [8],0.405
O=C(Nc1nc2cccc(-c3ccc(CN4CCS(=O)(=O)CC4)cc3)n2n1)C1CC1,NF-kB SEAP reporter activity,RAW-Dual [1]; [4],0.661
same,NF-kB SEAP reporter activity,RAW-Dual [1]; [5],1.02
Cc1cc(CN2CCN(c3c(Br)cnc4[nH]c(-c5ccc(N6CCN(C)CC6)cc5)nc34)CC2)no1,NF-kB SEAP reporter activity,"RAW-Dual [1]; library stock concentration (final ~1000-fold dilution): 2 mM, cytotoxicity flag (confluency mask): not cytotoxic, agonist: Imiquimod (TLR7) […]",1.06
same,NF-kB SEAP reporter activity,"RAW-Dual [1]; library stock concentration (final ~1000-fold dilution): 2 mM, cytotoxicity flag (confluency mask): not cytotoxic, agonist: MPLA (TLR4) […]",1
Cc1cc(CN2CCN(c3c(Br)cnc4[nH]c(-c5ccc(N6CCN(C)CC6)cc5)nc34)CC2)no1 (library stock concentration (final ~1000-fold dilution): 2 mM),NF-kB SEAP reporter activity,RAW-Dual [2]; agonist: LPS (TLR4) 0.1 ug/mL,1.36
same,NF-kB SEAP reporter activity,RAW-Dual [2]; [6],0.61
same,NF-kB SEAP reporter activity,RAW-Dual [2]; [7],1.24
same,NF-kB SEAP reporter activity,RAW-Dual [2]; [8],1.41
O=c1cc(-c2ccccc2)oc2cc(O)ccc12 (library stock concentration (final ~1000-fold dilution): 10 mM),NF-kB SEAP reporter activity,RAW-Dual [2]; agonist: LPS (TLR4) 0.1 ug/mL,1.2
same,NF-kB SEAP reporter activity,RAW-Dual [2]; [6],1.3
same,NF-kB SEAP reporter activity,RAW-Dual [2]; [7],1.43
same,NF-kB SEAP reporter activity,RAW-Dual [2]; [8],0.809
O=c1cc(-c2ccccc2)oc2cc(O)ccc12,NF-kB SEAP reporter activity,RAW-Dual [1]; [5],1.23
